Laboratory results taken from PubChem BioAssay AID1468 (National Center for Advancing Translational Sciences (NCATS), 2008).
The whole screen tested about 280,000 compounds, of which about 1,100 (0.39%) were called active. Inconclusive means that the source gave no clear call. Such entries were picked first, then a sample of the others. The call rests on the fitted dose curve; in most records, active means well fitted inhibition curve with a large enough effect; inconclusive means small, poorly fitted or top-dose-only effect, or effect the other way; inactive means flat fitted curve, though single readings scatter. Potencies of inconclusive entries are left out as doubtful fits.
Further: nearly all actives have a fitted effect of over 55% in size.
On the % scale 0 is the no-effect control and ±100 the full control effect; potency means the concentration at half of the fitted maximal effect; tags describe the fitted curve by direction and shape.

These molecules were tested against Microtubule-associated protein tau (Homo sapiens) (UniProt P10636) (assay: qHTS for Inhibitors of Tau Fibril Formation, Fluorescence Polarization). Conditions: K18 P301L tau heparin fibrillization, Alexa594 FP, 6 h; series mostly up to 57.7 µM; activity, negative = inhibition: at the top concentration.
UniProt P10636, sequence (P10636 whole entry, looked up, the tested form may be a part): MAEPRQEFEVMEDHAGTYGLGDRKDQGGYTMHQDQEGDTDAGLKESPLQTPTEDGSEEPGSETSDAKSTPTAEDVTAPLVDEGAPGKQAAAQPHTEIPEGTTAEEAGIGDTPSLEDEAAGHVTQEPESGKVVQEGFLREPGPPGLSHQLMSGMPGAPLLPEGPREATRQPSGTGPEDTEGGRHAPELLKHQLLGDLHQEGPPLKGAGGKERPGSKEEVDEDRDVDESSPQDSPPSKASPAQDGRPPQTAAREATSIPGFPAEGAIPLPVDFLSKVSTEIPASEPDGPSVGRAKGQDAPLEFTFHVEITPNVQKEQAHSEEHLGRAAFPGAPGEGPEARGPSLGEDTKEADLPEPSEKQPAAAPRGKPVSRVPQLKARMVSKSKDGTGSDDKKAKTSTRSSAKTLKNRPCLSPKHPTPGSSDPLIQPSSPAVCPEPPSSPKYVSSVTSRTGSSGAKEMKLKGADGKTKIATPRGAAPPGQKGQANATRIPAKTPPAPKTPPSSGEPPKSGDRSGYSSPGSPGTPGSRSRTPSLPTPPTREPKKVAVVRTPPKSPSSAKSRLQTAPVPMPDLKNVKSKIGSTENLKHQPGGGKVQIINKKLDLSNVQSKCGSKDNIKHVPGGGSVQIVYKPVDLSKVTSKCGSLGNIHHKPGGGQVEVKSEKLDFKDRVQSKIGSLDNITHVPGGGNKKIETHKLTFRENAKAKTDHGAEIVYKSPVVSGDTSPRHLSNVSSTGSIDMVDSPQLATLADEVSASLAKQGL
Method in brief: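 Human K18 P301L fragment (15 uM unlabeled plus 0.24 uM Alexa 594-labeled) in 100 mM sodium acetate pH 7 with compound, aggregation induced by 20 uM heparin for 6 hr at 37 C. ThT (30 uM) added for 1 hr, then Alexa 594 FP read.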
With Cc1cc(C)cc(C(=O)OCC(=O)Nc2cccc(S(=O)(=O)NC3=NCCCCC3)c2)c1 the Potency was inconclusive [activator, full curve, poor fit].
For CC(C)(C)C1CCC(OC(=O)C[N+]2(C)CCCC2)CC1 (stereo unspecified), the “activity, negative = inhibition” value was inactive: 5.38%.
For O=C(NNC(=O)c1cc(-c2ccccc2)nc2ccccc12)Nc1cccc(Cl)c1, the Potency was inconclusive [inhibitor, single point].
With CCCNC(=O)CCC(=O)N1Cc2cccc(OC)c2Oc2ncccc21 the “activity, negative = inhibition” value was inactive: 0.312%.
In the case of Cc1ccc(S(=O)(=O)Nc2ccc3oc(=O)sc3c2)c(C)c1, the Potency was inconclusive [inhibitor, single point].
CC1CN(C(=O)NCc2ccccc2)c2cc(Cl)ccc2O1 (stereo unspecified) was tested, and the Potency was inconclusive [activator, partial curve, poor fit].
For O=C(c1cc(-c2ccco2)nn1-c1cccc(Cl)c1)N1CCCCC1, the Potency was inconclusive [inhibitor, partial curve].
CC(=O)NNc1ncnc2c1cnn2-c1ccc(C)c(Cl)c1 was tested, and the Potency was inconclusive [activator, single point].
With O=C(N/N=C/c1ccc(Cl)cc1)c1cc2c(s1)-c1ccccc1CC2 the Potency was inconclusive [inhibitor, partial curve, poor fit].
N#Cc1c(-c2ccc(F)cc2)cc(C2CC2)nc1SCC(=O)c1cccs1 was tested, and the Potency was inconclusive [inhibitor, partial curve].
For O=C(NCc1ccc(Cl)cc1)C1CCN(c2nn3cc(-c4ccc(F)cc4)nc3s2)CC1, the Potency was inconclusive [inhibitor, partial curve].
In the case of O=C(Cc1ccccc1)NC(=S)Nc1ccc2oc(-c3ccccc3)nc2c1, the Potency was inconclusive [inhibitor, partial curve].
In the case of Cc1ccc(NC(=O)CC2S/C(=N/N=C/C=C/c3ccccc3)NC2=O)cc1Cl (stereo unspecified), the Potency was inconclusive [inhibitor, partial curve].
In the case of CC(=O)c1cccc(NC(=S)NCCCCc2ccccc2)c1, the Potency was inconclusive [inhibitor, partial curve].
With CCc1ccc(NC(=O)CSc2nnc3[nH]c(=O)cc(-c4ccccc4)n23)cc1 the “activity, negative = inhibition” value was inactive: 2.51%.
For COc1ccc2c(c1)Cc1sc(NC(=O)c3cccnc3)nc1-2, the Potency was inconclusive [inhibitor, single point].
In the case of c1coc(-c2nc(-c3ccco3)c(-c3ccco3)nc2-c2ccco2)c1, the Potency was active: 11.2 µM.
With O=C(CSCc1c(Cl)cccc1Cl)NN=C1CCCC1 the “activity, negative = inhibition” value was inactive: 2.76%.
For COc1ccc(-n2c(C)nc3sc4c(c3c2=O)CCCC4)cc1, the “activity, negative = inhibition” value was inactive: -5.33%.
For CS(=O)(=O)N(Cc1ccccc1)c1ccc(C(=O)Nc2cccc(Cl)c2)cc1, the Potency was inconclusive [inhibitor, full curve].
For O=C(Cc1csc(Nc2nc(=S)[nH]c3ccccc23)n1)NCCCN1CCN(c2cccc(Cl)c2)CC1, the Potency was inconclusive [inhibitor, single point].
With CCOc1ccc(NC(=S)N(CCc2c(C)[nH]c3ccc(C)cc23)Cc2ccncc2)cc1 the Potency was inconclusive [activator, full curve, poor fit].
With CSc1nc2ccc(NC(=O)c3cc4ccccc4o3)cc2s1 the Potency was inconclusive [inhibitor, partial curve, poor fit].
CCCCn1c(SCC(=O)Nc2cccc(OC)c2)nc2c(sc3ccccc32)c1=O was tested, and the Potency was inconclusive [inhibitor, single point].
With CCOC(=O)c1cc(-c2ccc(C)cc2)n(CCC(=O)Nc2nc3c(C)cccc3s2)c1C the Potency was inconclusive [inhibitor, single point].
With Cc1ccc2c(c1)c(=O)c1ccccc1n2CCCC(=O)Nc1ccc(C)c(F)c1 the Potency was inconclusive [inhibitor, partial curve, poor fit].
For C=C[C@@H](C1=CC(=O)C(OC)=C(OC)C1=O)c1ccccc1, the Potency was inconclusive [inhibitor, single point].
In the case of Cc1nnc2c(N3CCN(c4ccccc4F)CC3)nc3ccccc3n12, the Potency was inconclusive [inhibitor, single point].
In the case of Cc1ccc(C)c(C(=O)Cn2ncc(Cl)c(Cl)c2=O)c1, the “activity, negative = inhibition” value was inactive: -13.7%.
With CC(C)(C)C(=O)NC(=S)NNC(=O)c1sc2ccccc2c1Cl the Potency was inconclusive [activator, partial curve, poor fit].
With COc1ccc(NC(=O)CN2C(=O)C(c3ccc(C(C)(C)C)cc3)=NC2(C)C)cc1Cl the Potency was inconclusive [inhibitor, partial curve].
For CCN(CC)c1ccc(/C=C2\CCC(/C=C(\C#N)C(=O)Nc3ccccc3F)=C2N2CCOCC2)cc1, the Potency was inconclusive [inhibitor, partial curve, poor fit].
In the case of COC(=O)c1ccc(NC(=O)CSc2nnc(COc3ccc4c(c3)CCCC4)o2)cc1, the Potency was inconclusive [inhibitor, full curve].
For COc1ccc(NC(=O)c2ccc(F)cc2)cc1S(=O)(=O)Nc1cc(C)ccc1Br, the Potency was inconclusive [inhibitor, partial curve].
With CCCCCCCNC1=CC(=O)CC(c2ccccc2)C1 (stereo unspecified) the “activity, negative = inhibition” value was inactive: 10.5%.
Cc1csc(Sc2ccc(C(=O)OCC(=O)Nc3ccc(F)cc3[N+](=O)[O-])cc2[N+](=O)[O-])n1 was tested, and the Potency was inconclusive [activator, partial curve, poor fit].
For CCOC(=O)CSc1c(-c2cccs2)[nH]c2ccccc12, the Potency was inconclusive [inhibitor, single point].
With Cc1cccc(Cn2ccn(Cc3ccc(Cl)cc3)c(=O)c2=O)c1 the “activity, negative = inhibition” value was inactive: -2.21%.
With Cc1ccc(CNc2oc(-c3ccco3)nc2C#N)cc1 the Potency was inconclusive [activator, single point].
In the case of Cc1ccc(C)c(NC(=O)CN2C(=O)c3cccc4cccc2c34)c1, the Potency was inconclusive [inhibitor, full curve].
In the case of Cc1cc(C)cc(OCC(=O)OCC(=O)NCc2ccco2)c1, the Potency was inconclusive [inhibitor, single point].
